The source of these data is PMC7819943, “Rice protein-binding microarrays: a tool to detect cis-acting elements near promoter regions in rice”.

The other results are listed elsewhere or left out.

The assay deals with T1, OsWOX13 (Oryza sativa, UniProt Q5QMM3 1-267).
T1 sequence: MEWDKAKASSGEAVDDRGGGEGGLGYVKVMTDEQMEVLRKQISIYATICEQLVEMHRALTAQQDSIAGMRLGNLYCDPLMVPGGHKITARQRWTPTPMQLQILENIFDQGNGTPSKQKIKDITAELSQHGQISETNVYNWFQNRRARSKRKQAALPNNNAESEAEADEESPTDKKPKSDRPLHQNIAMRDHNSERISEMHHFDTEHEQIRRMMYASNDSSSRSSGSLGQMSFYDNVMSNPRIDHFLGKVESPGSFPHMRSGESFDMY
Nature of the assay: protein-binding microarray (RPBM); PBS, 2% BSA, 51.3 ng/ul salmon testes DNA, 50 uM zinc acetate, 200 nM TF, 25 C, 1 h; high values mean tight binding. The settings on record: protein: recombinant; tags: N-terminal polyhistidine and DsRed monomer fusion (pET32a); label: CyDye5-dUTP incorporated in the synthesized complementary strand; 3' TTTTT single-stranded linker to array surface; dsDNA, one strand shown. The method in brief:
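In PBS with 2% BSA, salmon testes DNA and 50 µM zinc acetate, 200 nM protein was incubated on a custom Agilent array at 25 °C for 1 h and then washed off. The array had been made double-stranded by primer extension with Cy5-dUTP and blocked with 2% BSA. The proteins were transcription factors fused N-terminally to polyhistidine and DsRed, expressed in E. coli BL21-CodonPlus and purified on Ni–NTA. The binding signal is per-feature fluorescence intensity (arbitrary units) from an Axon 4000B scanner.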
Regarding “GAAATTGATCAGAAAGAGAGACAAGAGAAGAGCTAGGGTTCGGAGTCACCTAGTGCAG”, the binding signal is 16800 fluorescence intensity (a.u.). For the sequence “TTCTAATTGCACACAGTATTTGGTAGTAACTGGCATGAGACGGAGTCACCTAGTGCAG”, the binding signal was 12000 fluorescence intensity (a.u.). To “ACCACTGATGAATCATCTCAAATTATCATCTGATCAGCGACGGAGTCACCTAGTGCAG” belongs 11600 fluorescence intensity (a.u.). Take “TCCCAATCACATTGTTACAACCAGCCCTAATACAGCATGACGGAGTCACCTAGTGCAG”: the binding signal is 6990 fluorescence intensity (a.u.).

For “AAAACAGGTTAAATTACATAATTCAAGTTCTGAAGGGATTCGGAGTCACCTAGTGCAG”, the binding signal was 4420 fluorescence intensity (a.u.). With “TAGTGATTGGTTTCACAATTAATAATATTGGAATCGAACTCGGAGTCACCTAGTGCAG”, the binding signal is 25000 fluorescence intensity (a.u.). Turning to “CGTCGTCCAATTAGACAATAATAAAGTGATTTTCGGTTGTCGGAGTCACCTAGTGCAG”, the binding signal was 8550 fluorescence intensity (a.u.). On to “ATATCCTGATTAATTACATGAGACGGCTAAAATACAGGGGCGGAGTCACCTAGTGCAG”, for which the binding signal was 15600 fluorescence intensity (a.u.). Take “ACGCCTGATTGATCCCCACCCCTATCTCCACTGACTGTGCCGGAGTCACCTAGTGCAG”: the binding signal is 38000 fluorescence intensity (a.u.). To “TTTGTAATTGTGTCTGCGCAAATGCGATGCCCGTGCGGCCCGGAGTCACCTAGTGCAG” belongs 10600 fluorescence intensity (a.u.).

Take “TTAAAATTAATTCCTTAATTATATCACCATTTGGTAGAAACGGAGTCACCTAGTGCAG”: the binding signal is 31200 fluorescence intensity (a.u.).

In the case of “ATTAGATTAGTCAACACGTATCTCTGCTATCTTAACATGCCGGAGTCACCTAGTGCAG”, the binding signal is 16800 fluorescence intensity (a.u.). Take “CGGTTTAGTTTATTTACAAAATTTTAATCTACTGCATTGCCGGAGTCACCTAGTGCAG”: the binding signal was 3900 fluorescence intensity (a.u.).

As to “AATCTTGACTGTCTTCATCATTCCCTTGAGCTCTTTATTGCGGAGTCACCTAGTGCAG”, the binding signal was 7160 fluorescence intensity (a.u.). To “TTCGGACTGAAATTTTAAAGATTAATCTCTAGGGGTTAGTCGGAGTCACCTAGTGCAG” belongs 3190 fluorescence intensity (a.u.); to “AATAAATAGCTTATTATAAATTAAATTTTATTTGATGAAACGGAGTCACCTAGTGCAG”, 9670 fluorescence intensity (a.u.). On to “CACATATTGATTTCAATTAATCTCACCCTGTTTAAATGTGCGGAGTCACCTAGTGCAG”, for which the binding signal is 40600 fluorescence intensity (a.u.).

Regarding “AATTAATCATCTCCTATCACCGCCCTAATCCTCTACAGTACGGAGTCACCTAGTGCAG”, the binding signal is 21100 fluorescence intensity (a.u.).

Turning to “AAAATAGACTAATTATTGAACGCACCCATACAAAAGTGTGCGGAGTCACCTAGTGCAG”, the binding signal is 26500 fluorescence intensity (a.u.). “CCAAATTTGATAAAGTTTGACCACTCGGCCCTGTAGTCAACGGAGTCACCTAGTGCAG”: the binding signal was 14500 fluorescence intensity (a.u.). As for “TGCCAATTAGCTAACTTCTAGATGGACAACGATTGAATCACGGAGTCACCTAGTGCAG”, the binding signal is 4870 fluorescence intensity (a.u.). For “TCTCATACAATCAACAACCTTAAACACATCAGCTCTAGTACGGAGTCACCTAGTGCAG”, the binding signal was 4160 fluorescence intensity (a.u.). Turning to “ATCATAATATGAAATATGGTAATTACCATAAGAATAAAAGCGGAGTCACCTAGTGCAG”, the binding signal is 3580 fluorescence intensity (a.u.). Take “GGGTGTCGCATGATTAAATAAATCGGAATTACTAAATGGCCGGAGTCACCTAGTGCAG”: the binding signal is 7010 fluorescence intensity (a.u.). To “GAAAACAATTGAGATTTAATCGGTAATATATTTAGTTAAGCGGAGTCACCTAGTGCAG” belongs 4920 fluorescence intensity (a.u.); to “CGCGTAAATTAAATCGGAGTTAAATTAGTGATGCCGCCAACGGAGTCACCTAGTGCAG”, 20500 fluorescence intensity (a.u.); to “AGCCAAAGATGGTGATTGATGCACATGGTATGGTCGGACGCGGAGTCACCTAGTGCAG”, 17800 fluorescence intensity (a.u.).

On to “GAGGGAGGGAAATTAATTGATGATATCCGGTTTGGTGCCCCGGAGTCACCTAGTGCAG”, for which the binding signal is 19100 fluorescence intensity (a.u.). “TATTTAAATAGAAATAAAATGATTTATTCAAATGTTATCGCGGAGTCACCTAGTGCAG”: the binding signal was 6230 fluorescence intensity (a.u.). Consider “GCCATCCATATTATAATTGAAAATAAATACTTATCCCTTTCGGAGTCACCTAGTGCAG”, for which the binding signal was 7980 fluorescence intensity (a.u.).

“GTTTTGGATGATTAACTTTTGTGAATACTCATATCTCTTACGGAGTCACCTAGTGCAG”: the binding signal was 3870 fluorescence intensity (a.u.).

On to “GATCATCAATATTGATTGAGAATATTTCACGACTGATTTGCGGAGTCACCTAGTGCAG”, for which the binding signal was 40900 fluorescence intensity (a.u.). “TTGCTTACTCACCGAGTCAATCATGACCAACCTGTCACATCGGAGTCACCTAGTGCAG”: the binding signal was 5450 fluorescence intensity (a.u.). Consider “TTGATTAATTTGACGTCGATGCTACTAATAGTTAACCTTCCGGAGTCACCTAGTGCAG”, for which the binding signal is 54200 fluorescence intensity (a.u.). As for “CCAACTAATTGTTTCTCAAAATTTTAAACTCCCCGAATACCGGAGTCACCTAGTGCAG”, the binding signal was 26400 fluorescence intensity (a.u.). For “ATCGTTGTTGGATTGATTGCACGAGAAAACAGAAGAAGGGCGGAGTCACCTAGTGCAG”, the binding signal was 27700 fluorescence intensity (a.u.). In the case of “CCAATAATGATAAATCCCGTGACGTAGTATACGCCTCTGTCGGAGTCACCTAGTGCAG”, the binding signal is 7020 fluorescence intensity (a.u.). For the sequence “AATTTAATTGTACTTATCTCACATGATACCTTCGATGTTGCGGAGTCACCTAGTGCAG”, the binding signal was 24100 fluorescence intensity (a.u.). Turning to “CAAATTTGCCAATTATGACAAAACAACATAAGTTAGAGTTCGGAGTCACCTAGTGCAG”, the binding signal was 25200 fluorescence intensity (a.u.). On to “AGGATGATGAGATGGAATGATGATAAGTGCCATGAAGCCTCGGAGTCACCTAGTGCAG”, for which the binding signal is 11600 fluorescence intensity (a.u.). As to “TTTAATTGTGTTTTATATAACTATAAAACATCAAACAAACCGGAGTCACCTAGTGCAG”, the binding signal was 16600 fluorescence intensity (a.u.). For “AACCCTCTAATTAACACCCTTTCATCTTGTACTTTAATTTCGGAGTCACCTAGTGCAG”, the binding signal was 9450 fluorescence intensity (a.u.).
